Records with an inconclusive call do not appear. Unless noted, calls come from the whole dose curve. The source holds several records for some structures; these can differ, active in one and inactive in another. The source holds more than one record for some entries. They are shown here; other results are not. There may be further records. The values listed for one entry are repeats (runs, samples, wells, individuals or studies). A tag in brackets gives the origin of a value. A, B and so on number the origins entry by entry.

Test [1] concerns the target KiSS-1 receptor (Homo sapiens) (UniProt Q969F8). As to the kind of experiment: Human kisspeptin (KISS1R) small molecule agonists, calcium flux assay in KISS1R-HEK293 cells (AID 1920064; active = well fitted activation curve with a large enough effect in the repeat runs). An outline of the steps: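 Concentration-response testing used 15 concentrations in triplicate on human KISS1R-expressing HEK293 cells. Calcium-dependent fluorescence (Ex/Em 480/540) was followed kinetically for 3 min after compound transfer.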

Test [2] in a line: p53 small molecule agonists, cell-based qHTS assay with rat liver microsomes (AID 1963578). The method in brief:
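Rat liver microsome activation: microsomes 0.5 mg/mL, NADPH 0.5 mg/mL final; p53RE-bla cells, 16 h 37 C; LiveBLAzer readout, 2 h RT dark.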

Test [3] can be described thus: cAMP Responsive Elements (CRE) small molecule agonists, cell-based qHTS assay (AID 1963590). An outline of the steps:
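Compound exposure lasted 3 h at 37 C/5% CO2 in CRE-bla HEK 293T cells grown in assay medium with 10% dialyzed FBS and 25 mM HEPES. Reporter signal came from LiveBLAzer B/G FRET substrate, 2 h, room temperature.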
For orientation: Quantitative high-throughput screening tests each substance at several concentrations.
Potency is the fitted concentration of half-maximal effect.

UniProt Q969F8, sequence (Q969F8 whole entry, looked up): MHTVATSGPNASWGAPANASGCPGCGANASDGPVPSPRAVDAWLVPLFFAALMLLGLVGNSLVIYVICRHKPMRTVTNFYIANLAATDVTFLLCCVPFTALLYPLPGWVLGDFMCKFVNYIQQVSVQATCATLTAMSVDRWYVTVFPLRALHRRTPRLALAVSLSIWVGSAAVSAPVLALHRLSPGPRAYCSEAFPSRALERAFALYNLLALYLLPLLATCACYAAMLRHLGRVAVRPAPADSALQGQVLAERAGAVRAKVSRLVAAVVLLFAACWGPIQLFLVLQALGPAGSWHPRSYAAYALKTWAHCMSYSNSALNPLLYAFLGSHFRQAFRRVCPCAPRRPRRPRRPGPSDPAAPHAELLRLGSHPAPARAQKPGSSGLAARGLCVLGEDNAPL

Consider `CCOc1ccc2c(c1)C(C)=CC(C)(C)N2`, for which the Potency result in test [1] is “active: 54.7 µM [sample A] and inactive [sample B]”.
Consider `CC(=O)[C@H]1CC[C@H]2[C@@H]3CCC4=CC(=O)CC[C@]4(C)[C@H]3CC[C@]12C`, for which the Potency entry in test [2] was “active: 643 nM [sample A] and inactive [sample B]”.
With `Nc1ccc(N)c(Cl)c1`, in test [3], the Potency result was “active: 7.68 µM [sample A] and inactive [sample B]”.

Source of the values: PubChem BioAssay (Tox21).
